Laboratory results published in the RNAGym collection of RNA variant scans (doi:10.1101/gad.245936.114).
Variants at the floor of the assay are shown more often than the library holds them.

B1: tRNA (parent)
chain: CUCUCGGUAGCCAAGUUGGUUUAAGGCGCAAGACUUUAAUUUAUCACUACGAAAUCUUGAGAUCGGGCGUUCGACUCGCCCCCGGGAGAUUUUUUCCUCGAGCAA

Variants of: B1
Assay: nonsense suppression (GFP-seq) (ratio to wild type); higher = more function; SUP4oc tRNA, yeast GFP reporter sort-seq
Summary of the method: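 Sorted GFP/RFP bins of yeast were each Illumina-sequenced with a phred ≥30 cutoff; the cells held a genome-integrated ochre-suppressor tRNA variant from a library with ~3% random mutations, a galactose-driven GFP ochre reporter, and RFP. Culture was in raffinose/galactose medium containing 80 mg/L adenine. Nonsense suppression, termed GFPSEQ, is the median GFP/RFP of the bins weighted by each variant's estimated cell share per bin, relative to the unmutated parent tRNA, for variants reaching ≥100 reads and ≥30 cells.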

C1A G10U U57G and C1A A24G C29G U70G cannot be ordered by nonsense suppression: at most 0.026 for the first, at most 0.026 for the second.

C1A C11A G67C A74U and C1A A23U cannot be ordered by nonsense suppression: at most 0.026 for the first, at most 0.026 for the second.

C1A G69A and C1A G6C U20A cannot be ordered by nonsense suppression: at most 0.026 for the first, at most 0.026 for the second.

C1A G6C C11U C68A and C1A C5G G61A cannot be ordered by nonsense suppression: at most 0.026 for the first, at most 0.026 for the second.

C1A A54G U76G and C1A C56A G73C cannot be ordered by nonsense suppression: at most 0.026 for the first, at most 0.026 for the second.

C1A C56U and C1A A33U C64U U70C C77A cannot be ordered by nonsense suppression: at most 0.026 for the first, at most 0.026 for the second.

C1A U20C and C1A A9C C64U C77U cannot be ordered by nonsense suppression: at most 0.026 for the first, at most 0.026 for the second.

C1G A9U A33C G66U G78A and C1A C12G A13C U20C U21G A24G cannot be ordered by nonsense suppression: at most 0.026 for the first, at most 0.026 for the second.

C1G A13U G25U G59C and C1A U55C G85U G88U cannot be ordered by nonsense suppression: at most 0.026 for the first, at most 0.026 for the second.

C1A C11U and C1A G6A U22C C34G A89G cannot be ordered by nonsense suppression: at most 0.026 for the first, at most 0.026 for the second.

C1A A14C and C1A A14G cannot be ordered by nonsense suppression: at most 0.026 for the first, at most 0.026 for the second.

C1A A9U A14U C34U and C1A G19A C64U cannot be ordered by nonsense suppression: at most 0.026 for the first, at most 0.026 for the second.

C1A U76C and C1A C56A A62U cannot be ordered by nonsense suppression: at most 0.026 for the first, at most 0.026 for the second.

C1A G6U G7A A14G A62C G69U G85C and C1A A30C U35G cannot be ordered by nonsense suppression: at most 0.026 for the first, at most 0.026 for the second.

C1G A9C U21G C64U and C1G A9U U58A U63G G88C cannot be ordered by nonsense suppression: at most 0.026 for the first, at most 0.026 for the second.

C1A G6C U16G C56U A74C and C1A C27A A33G G66A C79U cannot be ordered by nonsense suppression: at most 0.026 for the first, at most 0.026 for the second.

C1G A14U C77U and C1A A33G A54C cannot be ordered by nonsense suppression: at most 0.026 for the first, at most 0.026 for the second.

C1A A24C C82U A87U and C1A U17G U20G cannot be ordered by nonsense suppression: at most 0.026 for the first, at most 0.026 for the second.

C1A A14U U17A and C1A U22A G61C cannot be ordered by nonsense suppression: at most 0.026 for the first, at most 0.026 for the second.

C1A U55A U57G A89G and C1G A13C G85U cannot be ordered by nonsense suppression: at most 0.026 for the first, at most 0.026 for the second.

C1A A31U C80A and C1A G7C G66A cannot be ordered by nonsense suppression: at most 0.026 for the first, at most 0.026 for the second.

C1A G19C A31G A60U U71A C72G G84U and C1A C80G cannot be ordered by nonsense suppression: at most 0.026 for the first, at most 0.026 for the second.

C1A U8A U16G U21A U57C U76C and C1A U55C G78C A89U cannot be ordered by nonsense suppression: at most 0.026 for the first, at most 0.026 for the second.

First: C1A G85C
Second: C1A G85U
The nonsense suppression of the first is lower: at most 0.026 for the first, 0.03 for the second.

C1A G69A G88C and C1A G25C G85C cannot be ordered by nonsense suppression: at most 0.026 for the first, at most 0.026 for the second.

C1A A54U C83G and C1G A9G A31G C34G G59C cannot be ordered by nonsense suppression: at most 0.026 for the first, at most 0.026 for the second.

C1A U4G A13U and C1G A14U A74U cannot be ordered by nonsense suppression: at most 0.026 for the first, at most 0.026 for the second.

C1A C5G and C1A U8C cannot be ordered by nonsense suppression: at most 0.026 for the first, at most 0.026 for the second.

C1A A9C A60U and C1A G25U G67A C72G cannot be ordered by nonsense suppression: at most 0.026 for the first, at most 0.026 for the second.

C1A G32A and C1A G32U cannot be ordered by nonsense suppression: at most 0.026 for the first, at most 0.026 for the second.

C1A A89U and C1A C83G cannot be ordered by nonsense suppression: at most 0.026 for the first, at most 0.026 for the second.

C1A C83U and C1A U8C G67A cannot be ordered by nonsense suppression: at most 0.026 for the first, at most 0.026 for the second.

C1A C12U A13U A14C G59A and C1A C11A U63C C80A cannot be ordered by nonsense suppression: at most 0.026 for the first, at most 0.026 for the second.

C1A A9U U57C and C1A C3A G28U cannot be ordered by nonsense suppression: at most 0.026 for the first, at most 0.026 for the second.

C1A C11A C75G C81A and C1A C11U C12U A14U A62U cannot be ordered by nonsense suppression: at most 0.026 for the first, at most 0.026 for the second.

C1A C29A C79G and C1G A9G G18C cannot be ordered by nonsense suppression: at most 0.026 for the first, at most 0.026 for the second.

C1G A14C C56A A74U and C1A G7U U20A cannot be ordered by nonsense suppression: at most 0.026 for the first, at most 0.026 for the second.

C1A C27G A60G and C1A G18A U58A A62U cannot be ordered by nonsense suppression: at most 0.026 for the first, at most 0.026 for the second.

C1G A14G C80G and C1G A14C U63A cannot be ordered by nonsense suppression: at most 0.026 for the first, at most 0.026 for the second.

C1A U2A A13U U16G G61A G66U G88C and C1G cannot be ordered by nonsense suppression: at most 0.026 for the first, at most 0.026 for the second.

C1A and C1A A54G cannot be ordered by nonsense suppression: at most 0.026 for the first, at most 0.026 for the second.

C1A U58G and C1G A23G C56U G66U U76G cannot be ordered by nonsense suppression: at most 0.026 for the first, at most 0.026 for the second.

C1A G65A A87C and C1A C77U cannot be ordered by nonsense suppression: at most 0.026 for the first, at most 0.026 for the second.

C1A C77G and C1A G84C cannot be ordered by nonsense suppression: at most 0.026 for the first, at most 0.026 for the second.

C1A G7C A54C C80A and C1A G7A C11U A30G U35G A60U G69C cannot be ordered by nonsense suppression: at most 0.026 for the first, at most 0.026 for the second.

C1A U8A U55C A89U and C1G A14U U71A C81A cannot be ordered by nonsense suppression: at most 0.026 for the first, at most 0.026 for the second.

C1A G7U C80G G84A and C1A C34U cannot be ordered by nonsense suppression: at most 0.026 for the first, at most 0.026 for the second.

C1A A62C U76C and C1A A9C C27G G69C cannot be ordered by nonsense suppression: at most 0.026 for the first, at most 0.026 for the second.

C1A G67C G84U and C1A U2A G28A cannot be ordered by nonsense suppression: at most 0.026 for the first, at most 0.026 for the second.

C1A C3U and C1G A9G G18A A24C cannot be ordered by nonsense suppression: at most 0.026 for the first, at most 0.026 for the second.

C1A A60G and C1A U20G A24C C27G U70G C77U C81U G85A cannot be ordered by nonsense suppression: at most 0.026 for the first, at most 0.026 for the second.

C1A A14G G66U U76G and C1A A9C U21G cannot be ordered by nonsense suppression: at most 0.026 for the first, at most 0.026 for the second.

C1A C3U C77G and C1A C3U U70G C77G cannot be ordered by nonsense suppression: at most 0.026 for the first, at most 0.026 for the second.

C1G A9C and C1A U2A cannot be ordered by nonsense suppression: at most 0.026 for the first, at most 0.026 for the second.

C1A G26A C79U and C1A U20A C34A G59A cannot be ordered by nonsense suppression: at most 0.026 for the first, at most 0.026 for the second.

C1A G67C C77G G88U and C1A G18U A54C G88C cannot be ordered by nonsense suppression: at most 0.026 for the first, at most 0.026 for the second.

C1A U16C G18A C64G and C1A C64A cannot be ordered by nonsense suppression: at most 0.026 for the first, at most 0.026 for the second.

C1A U4G C11U and C1A C27U U55G U57G G69A cannot be ordered by nonsense suppression: at most 0.026 for the first, at most 0.026 for the second.

C1G A13G U16G U55C and C1A U21A cannot be ordered by nonsense suppression: at most 0.026 for the first, at most 0.026 for the second.

C1A A9C U17A A24C U35G G67U G84A G86A G88A and C1A U4C U63G cannot be ordered by nonsense suppression: at most 0.026 for the first, at most 0.026 for the second.

C1A A62C and C1A A62U cannot be ordered by nonsense suppression: at most 0.026 for the first, at most 0.026 for the second.

C1A A30G C75A and C1A A24C cannot be ordered by nonsense suppression: at most 0.026 for the first, at most 0.026 for the second.

C1A A9U C68G U76A C81A and C1A G10U C34G G86C cannot be ordered by nonsense suppression: at most 0.026 for the first, at most 0.026 for the second.

C1G A14G C72A and C1A U35C cannot be ordered by nonsense suppression: at most 0.026 for the first, at most 0.026 for the second.

C1A U35A and C1A U4G cannot be ordered by nonsense suppression: at most 0.026 for the first, at most 0.026 for the second.

C1A C75G and C1A U71C C77G cannot be ordered by nonsense suppression: at most 0.026 for the first, at most 0.026 for the second.

C1A C27G A31C C34A G67C and C1A A9U A30U U58C A60U C72A cannot be ordered by nonsense suppression: at most 0.026 for the first, at most 0.026 for the second.

C1G A14U C34G C75A and C1A G65A cannot be ordered by nonsense suppression: at most 0.026 for the first, at most 0.026 for the second.

C1A G61U and C1A G25U C81U cannot be ordered by nonsense suppression: at most 0.026 for the first, at most 0.026 for the second.

C1G A14G U63G U70A C77A C80U G88C and C1A A23U U76C cannot be ordered by nonsense suppression: at most 0.026 for the first, at most 0.026 for the second.

C1A C56U U71G and C1A U16A G32A cannot be ordered by nonsense suppression: at most 0.026 for the first, at most 0.026 for the second.

C1A A60C G88C and C1A A23C C29G cannot be ordered by nonsense suppression: at most 0.026 for the first, at most 0.026 for the second.

C1A A14C G65C A74C and C1A A9C U76A cannot be ordered by nonsense suppression: at most 0.026 for the first, at most 0.026 for the second.

C1A G7C A23G A24G G25C C29G and C1A G6C U8G cannot be ordered by nonsense suppression: at most 0.026 for the first, at most 0.026 for the second.

C1A U4C U76C G78A and C1G A14G G19U A62C G69C cannot be ordered by nonsense suppression: at most 0.026 for the first, at most 0.026 for the second.

C1A U63G G66C A74U and C1A G6A U17C cannot be ordered by nonsense suppression: at most 0.026 for the first, at most 0.026 for the second.

Going from C1A C5G A13G G18C A54U G65C to C1A G73A, the nonsense suppression rises from at most 0.026 to 0.112.

C1A A54G U58C U71C and C1A U2A G32C G69A cannot be ordered by nonsense suppression: at most 0.026 for the first, at most 0.026 for the second.

C1A A13U and C1A U70C cannot be ordered by nonsense suppression: at most 0.026 for the first, at most 0.026 for the second.

C1A U70G and C1G A14C cannot be ordered by nonsense suppression: at most 0.026 for the first, at most 0.026 for the second.

C1G A9G C11A U21A A30C G78A and C1A G78U cannot be ordered by nonsense suppression: at most 0.026 for the first, at most 0.026 for the second.

C1G A9U G59A and C1A U16G A54G C82A cannot be ordered by nonsense suppression: at most 0.026 for the first, at most 0.026 for the second.

C1A C72A and C1A U57G U70A cannot be ordered by nonsense suppression: at most 0.026 for the first, at most 0.026 for the second.

In the case of C1G A9G C68U, the nonsense suppression is reported as at most 0.026.
